# According to PMC4336329 (PLoS ONE, 2015):
# About 2,200 (0.71%) of roughly 310,000 compounds showed an effect of 50% or more. The effect is printed as a negative number. The list shows a part of the results.
# Target: human ether-à-go-go-related gene (hERG) potassium channel (human, UniProt Q12809)
# Assay: primary screen, population patch clamp on CHO cells stably expressing hERG
# Sequence of human ether-à-go-go-related gene (hERG) potassium channel (Q12809 whole entry, looked up): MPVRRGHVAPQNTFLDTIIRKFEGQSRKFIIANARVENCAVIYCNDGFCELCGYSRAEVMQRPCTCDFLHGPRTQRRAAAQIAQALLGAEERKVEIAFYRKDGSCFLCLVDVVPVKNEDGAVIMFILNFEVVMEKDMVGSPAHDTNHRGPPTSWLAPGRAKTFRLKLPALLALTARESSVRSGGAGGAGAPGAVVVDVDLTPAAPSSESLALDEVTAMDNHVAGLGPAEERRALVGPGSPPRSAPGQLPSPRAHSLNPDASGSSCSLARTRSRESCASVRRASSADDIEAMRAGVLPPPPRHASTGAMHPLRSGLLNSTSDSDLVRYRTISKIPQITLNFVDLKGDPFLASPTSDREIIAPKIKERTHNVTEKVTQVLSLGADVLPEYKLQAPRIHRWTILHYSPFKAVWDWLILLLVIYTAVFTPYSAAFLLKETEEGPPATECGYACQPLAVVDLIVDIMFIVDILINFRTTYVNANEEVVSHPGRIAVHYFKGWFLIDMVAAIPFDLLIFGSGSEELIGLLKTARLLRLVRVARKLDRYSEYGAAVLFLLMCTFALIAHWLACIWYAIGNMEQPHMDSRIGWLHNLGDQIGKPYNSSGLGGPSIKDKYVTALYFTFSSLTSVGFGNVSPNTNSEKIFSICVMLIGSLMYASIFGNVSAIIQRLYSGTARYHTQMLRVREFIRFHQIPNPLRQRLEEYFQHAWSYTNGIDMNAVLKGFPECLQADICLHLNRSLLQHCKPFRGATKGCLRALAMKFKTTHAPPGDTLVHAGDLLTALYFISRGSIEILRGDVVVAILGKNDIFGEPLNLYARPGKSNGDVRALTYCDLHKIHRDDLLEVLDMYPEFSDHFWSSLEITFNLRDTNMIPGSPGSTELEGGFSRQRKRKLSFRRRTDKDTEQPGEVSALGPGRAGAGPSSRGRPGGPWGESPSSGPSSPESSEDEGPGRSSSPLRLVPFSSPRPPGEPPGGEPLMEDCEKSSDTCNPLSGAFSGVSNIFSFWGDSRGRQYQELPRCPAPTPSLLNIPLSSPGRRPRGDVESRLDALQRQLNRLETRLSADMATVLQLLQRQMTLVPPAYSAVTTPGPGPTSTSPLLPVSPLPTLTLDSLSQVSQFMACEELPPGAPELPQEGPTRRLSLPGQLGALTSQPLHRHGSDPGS
row,SMILES,"hERG current change (%, negative = inhibition) at 1uM"
1,COc1cccc(C2=CC(c3ccccc3)n3ncnc3N2)c1 (stereo not drawn),9.62%
2,COc1ccc(CCNC(=O)C(=O)NCc2ccc(Cl)cc2)cc1OC,19%
3,NS(=O)(=O)c1ccc(NC(=O)CSc2n[nH]c(=O)n2Cc2ccccc2)cc1,12.5%
4,COc1cccc(C(=O)OCC(=O)NCCCc2ccccc2)c1,9.81%
5,O=C(NN1CCCCC1)c1ccccc1,3.97%
6,O=C(CNC(=O)c1cccs1)NCC(=O)OCc1cccc(Cl)c1,0.407%
7,Cc1nc(-c2ccc(F)cc2)c(CC(=O)NCC(=O)Nc2ccc(F)c(F)c2)s1,-14.9%
8,CC(=O)N1CCc2c(sc(NC(=O)C3CC3)c2-c2nc3ccccc3s2)C1,9.49%
9,COc1ccc2c(c1)c(C(=O)N/N=C/c1ccccc1Cl)c(C)n2C,8.08%
10,COc1ccc(S(=O)(=O)N2CCC(C(=O)NC3CCCC3)CC2)cc1OC,37%
11,Cc1ccc(-n2c(=O)[nH]cc(C(=O)N3CCc4ccccc43)c2=O)cc1C,2.92%
12,Cc1[nH]nc2c1C(C1CC=CCC1)C(C#N)=C(N)O2 (stereo not drawn),12%
13,Cc1ccc(-n2nc(-c3cccnc3)cc2C(=O)N2CCOCC2)c(C)c1,13.2%
14,Cc1ccc(NC(=S)/C(=C(\[O-])c2ccc(C)c([N+](=O)[O-])c2)[n+]2ccccc2)cc1C,-3.25%
15,COC(=O)C1CN(C(=O)COc2ccc(Cl)cc2C)c2ccccc2O1 (stereo not drawn),11.7%
16,O=S(=O)(c1cccc(C(F)(F)F)c1)N1CCN(C(=S)NC2CC2)CC1,10.2%
17,Cn1c(=O)c2c(nc(CN3CCOCC3)n2CCc2ccccc2)n(C)c1=O,5.54%
18,CCn1cc(C(=O)NCCCN(C)C)c(=O)c2cc(F)c(N3CCN(C)CC3)cc21.Cl,14.9%
19,CC(NCC(O)COCc1ccc(Cl)cc1)c1ccccc1.Cl (stereo not drawn),-14.4%
20,COc1ccc(C(=O)NN2CCOCC2)cc1,-12.6%
21,Cc1ccc(C(=O)N2CCN=C2SCc2ccc([N+](=O)[O-])cc2)cc1,-16.9%
22,Cc1csc(C(C#N)C(=O)c2ccncc2)n1 (stereo not drawn),14.3%
23,NNC(=O)CCN(Cc1ccco1)S(=O)(=O)c1ccc(Cl)cc1,11.8%

row,SMILES,"hERG current change (%, negative = inhibition) at 1uM"
1,Cc1cc(NC(=O)CSC2=NS(=O)(=O)c3ccccc3N2)no1,14.6%
2,O=C(N/C(=C\c1ccc(O)cc1)C(=O)N1CCCCC1)c1ccccc1,5.86%
3,O=C(O)c1cccc(N2C(=O)c3cccnc3C2=O)c1,11.1%
4,Cc1cccc(NC(=O)C2CCN(S(=O)(=O)c3cccc4nsnc34)CC2)c1,5.39%
5,c1ccc(CNc2nc3ccccc3n3cnnc23)cc1,7.94%
6,CC(C)(C)c1ccc(/C=N/Nc2ccc(C(=O)O)cc2)cc1,3.13%
7,COc1ccc(-n2ccnc2SCC(=O)NC2CCCC2)c(OC)c1,7.43%
8,COc1cccc(OC)c1C(=O)Nc1cccc2c1CCCC2,15.3%
9,COc1ccc(Oc2coc3cc(OC(=O)c4cncc(Br)c4)ccc3c2=O)cc1,11.1%
10,COc1cccc(NC(C)=[N+](C)CCNS(=O)(=O)c2ccc(Cl)cc2)c1.[I-],-36.6%
11,CC(C)c1ccc(C2N3CC4([N+](=O)[O-])CN2CC([N+](=O)[O-])(C3)C4(C)C)cc1 (stereo not drawn),22.6%
12,Cc1ccc2cc([N+](=O)[O-])ccc2n1,13%
13,CCOc1cc2[nH]c(=S)n(CCCC(=O)NCc3ccccn3)c(=O)c2cc1OCC,11.3%
14,Oc1[nH]c2ccccc2c1N=NC(=S)NCCc1ccccc1,8.33%
15,CC1=NN(c2ccc(C(=O)O)cc2)C(=O)CC1,14.3%
16,N#Cc1c(N)nc(SCC(=O)NCc2ccc3c(c2)OCO3)c(C#N)c1-c1cccs1,-2.25%
17,CCCS(=O)(=O)N1CCCC(C(=O)N2CCC(Cc3ccccc3)CC2)C1 (stereo not drawn),4.01%
18,Cc1noc(C)c1COc1ccccc1C(=O)N(C)Cc1ccco1,9.46%
19,CCOC(=O)CC1C(=O)NCCN1C(=O)Nc1ccc(Cl)cc1 (stereo not drawn),7.85%
20,CCOC(=O)CC(=O)CSc1nc2c(cc1C#N)CCCCCC2,-3.51%
21,CC(/C=N\NC(=O)CN1CCN(Cc2ccccc2)CC1)=C\c1ccco1,-0.21%
22,O=C(CSc1nnc(Nc2ccccc2)s1)Nc1cccnc1Cl,2.05%
23,COCCCNC(=O)CSc1c2c(nc3ccc(Cl)cc13)CCCC2,12.1%

row,SMILES,"hERG current change (%, negative = inhibition) at 1uM"
1,CCn1c(O)c(/C=N/N=C/c2ccccc2)c2ccc(C3=NNC(=O)CC3)cc21,8.69%
2,CC1CCCN(C(=O)Nc2cccc(NC(=O)N3CCCC(C)C3C)c2)C1C (stereo not drawn),2.73%
3,C1=C(C(c2nnnn2C2CCCCC2)N2CCCCC2)COc2ccccc21 (stereo not drawn),5.23%
4,CCN(Cc1ccccc1)S(=O)(=O)c1cc(C(=O)OC)n(C)c1,-2.53%
5,CCOc1ccccc1NC(=O)CCCCCN1C(=O)[C@@H]2Cc3ccccc3CN2C1=O,1.59%
6,CCN=C(NCC)SC1CC(=O)N(c2cccc(OCC)c2)C1=O (stereo not drawn),9.12%
7,CCC1(c2ccccc2)NC(=O)N(CC(=O)N(C)CC(=O)Nc2ccc(F)c(F)c2F)C1=O (stereo not drawn),-1.76%
8,CCn1cc(C(=O)O)c(=O)c2cc(F)c(N3CCN(C(=S)Nc4ccccc4OC)CC3)cc21,5.28%
9,O=C(NCCc1cn2ccccc2n1)C1CCCCC1,5.76%
10,COc1ccc(OCC(=O)Nc2ccc3c(c2)nc(CN2CCN(C(C)=O)CC2)n3C)cc1.Cl,7.69%
11,CC(C)c1ccccc1NC(=O)COC(=O)c1cccnc1,16.5%
12,CC(Nc1n[nH]c(=O)[nH]c1=O)C(=O)N/N=C/c1ccccc1 (stereo not drawn),10.3%
13,O=C(NNC(=O)c1ccccc1F)c1cccs1,11.9%
14,Cc1ccc(C)c(N(CC(N)=O)S(C)(=O)=O)c1,4.47%
15,O=C1CCC(C(=O)Nc2ccc([N+](=O)[O-])cc2)N1 (stereo not drawn),9.5%
16,CCOCCCNC(=O)C(NC(=O)CNC(C)=O)c1ccc(Cl)cc1 (stereo not drawn),12%
17,O=C1c2cccnc2C(Nc2ccc(Br)cc2)N1Cc1cccs1 (stereo not drawn),17%
18,O=C(NC(=S)NC1CCCc2ccccc21)c1ccc(F)cc1 (stereo not drawn),18.6%
19,O=[N+]([O-])/C=C1\CCCCCN1,9.72%
20,O=C1CCC(=O)N1CCSC(=S)N1CCOCC1,2.83%
21,COc1cccc2c1cc1c(=O)n(CC(=O)NCCCN3CCCCC3)nc(C)n12,10.7%
22,O=C(Cn1cnc2cc([N+](=O)[O-])ccc2c1=O)Nc1ccc2c(c1)CCC2,13.6%
23,Cc1ccc(OCC(=O)O/N=C(\N)c2ccccn2)cc1C,10.4%

row,SMILES,"hERG current change (%, negative = inhibition) at 1uM"
1,CN(CC(=O)Nc1ccc(OC(F)(F)F)cc1)S(=O)(=O)c1cnc[nH]1,7.02%
2,O=c1[nH]c2cc(Br)cnc2nc1/C=C(\O)c1ccc(F)cc1,11%
3,CC1CCN=C(N)S1.Cl (stereo not drawn),11.4%
4,O=C(NC1CCCCC1)c1ccc(S(=O)(=O)c2ccccc2)cc1,9.93%
5,COc1ccc(C(=O)NCCS(=O)(=O)NCc2ccccc2OC)cc1,8.09%
6,Cc1[nH]c(=O)[nH]c(=O)c1S(=O)(=O)Nc1ccc(F)cc1Cl,13.9%
7,CNC(=S)NCc1ccc(Cl)cc1,6.52%
8,CSC1=NCCN1C(=O)c1c(F)cccc1Cl,-4.5%
9,CCC1CCCCN1S(=O)(=O)c1ccc(C(=O)Nc2nnc(-c3cccs3)o2)cc1 (stereo not drawn),-4.08%
10,O=C(NCCc1c[nH]c2ccccc12)/C(=C\c1cccnc1)NC(=O)c1ccco1,-10.8%
11,CCCCn1c(N)c(N(CCC(C)C)C(=O)c2ccccc2C)c(=O)[nH]c1=O,17.7%
12,CCN(CC)c1ccc(NC(=S)NCC2CCCO2)cc1 (stereo not drawn),10.4%
13,O=c1[nH]c(CSc2ncnc3sc(-c4ccccc4)cc23)nc2ccccc12,25.3%
14,CCN(CC(=O)Nc1ccccc1C(F)(F)F)C(=O)c1cc(S(=O)(=O)N(C)C)ccc1N1CCCC1,10.5%
15,O=C(Nc1ccc(Cl)cc1)N(Cc1nnc2n1CCCCC2)c1ccccc1,11.5%
16,O=C(c1ccc(Cl)c(Cl)c1)N1CCC(=O)N(C(COCc2cccc(C(F)(F)F)c2)Cc2ccccc2)CC1 (stereo not drawn),12.7%
17,CC1CCC2(CC1)NC(=O)N(CC(=O)NCc1cccs1)C2=O (stereo not drawn),7.72%
18,O=C(Nc1ccc2oc(-c3ccncc3)nc2c1)c1ccc2c(c1)OCCO2,6.85%
19,O=C(NCc1ccco1)c1cccc(N2CCCC2=O)c1,0.979%
20,CCOC(=O)[C@@H](CCc1ccccc1)N[C@H](C)C(=O)N1[C@H](C(=O)O)C[C@@H]2CCC[C@@H]21,20.8%
21,Cn1c(=O)[nH]c(=O)c2c1nc(SCCC(=O)O)n2Cc1cccc(Br)c1,8.44%
